Screen size: about 4,800 compounds; about 420 (8.8%) showed an effect of 50% or more. The list shows a part of the results.
These molecules were tested on Plasmodium falciparum (assay: Confirmatory screen in NF54 nanoGlo assay, in single point, at 2uM, 72h). Settings: timepoint 72 hour.
Assay type: functional, Erythrocyte

Point of comparison: `COc1ccc(CN(Cc2ccncc2)CC2CCN(C3CCN(C)CC3)CC2)c(F)c1`, “% Inhibition” value 85%. Against it:
- O=C(CCc1ncc(-c2ccc(Cl)cc2Cl)o1)NC1(C(=O)O)CCCCC1 — lower, -8%
- Cc1ccc(CN2C(=O)[C@@H]3CCCN3c3ccc(C(F)(F)F)cc32)cc1 — lower, -17%
- Cc1cccc(-c2nc3nc(C)c(CC(=O)N4CCCCC4)c(C)n3n2)c1 — lower, 1%
- COc1cc(C)c2[nH]c3c(c(=O)c2c1)CN(CC(=O)Nc1ccc2c(c1)OCO2)CC3 — lower, 12%
- O=C1CCCC1C1COCCN1Cc1ncsc1Br (configuration not stated) — lower, 9%
- COc1ccc(CNC(=N)NS(=O)(=O)c2ccc(OC)c(OC)c2)c(OC)c1 — lower, 2%
- O=C(NCc1cc(F)cc(F)c1)c1csc(C(=O)NC2CC2)n1 — lower, -6%
- CCC(CC)C(=O)c1c[nH]c(C(N)=O)c1 — lower, -12%
- O=C(COc1nnc2ccccn12)NC1CCCCCC1 — lower, -4%
- COc1ccc(C(=O)Nc2nnc([C@H]3CC(=O)N(c4ccc(C)cc4)C3)o2)cc1OC — lower, -16%
- CCCn1c(C)ccc(-c2noc(CCC(=O)NC3CCCC3)n2)c1=O — lower, -6%
- O=C(COc1ccc(Cl)cc1Cl)Nc1onc2c1CCC2 — lower, 18%
- COc1ccsc1S(=O)(=O)N1CCC(n2ccnc2)CC1 — lower, -3%
- Cc1ccccc1[C@H]1CCN(c2ccc(NC(=O)c3ccc(Cl)cc3)c(C(=O)O)c2)C1 — lower, -11%
- O=C1CC(C(=O)NC[C@H]2C[C@@H]2C2CCC2)CN1 (some centres not stated) — lower, -5%
- c1ccc2c(CCNC3(c4nnnn4CCCN4CCOCC4)CCCC3)c[nH]c2c1 — lower, 0%
- Cc1oc(-c2ccc(C(=O)N3CCN(c4ccccc4)CC3)cc2)nc1CN1CCC(C)CC1 — lower, 38%
- COc1ccc(-c2cn(-c3ccc(OC)cc3)c(N)c2C#N)cc1 — lower, -7%
- Cc1ccc(OCCNc2cc([C@H]3C[C@H](N)C3)nc(C3CC3)n2)cc1C — lower, 31%
- Cc1nc2sc(C(=O)Nc3ccc4ccccc4c3)c(N)c2c(C)c1C — lower, 2%
- CNC(=O)NCc1ccccc1S(C)(=O)=O — lower, -8%
- Cc1ccc(S(=O)(=O)Cc2nc(-c3ccc(C(=O)NCc4ccc(C)o4)cc3)oc2C)cc1 — lower, -18%
- Cc1cccnc1C(F)(F)C(=O)Nc1cc(C)c(O)c(C)c1 — lower, 4%
- Cc1ccccc1S(=O)(=O)N1CCN(c2c(C)n(-c3ccccc3)c(=O)n(CC(C)C)c2=O)CC1 — lower, 7%
- COc1cc(C(=O)Nc2[nH]c(=O)ncc2F)ccc1Cl — lower, 81%
- Cc1ccc(CCC(=O)N2CC[C@H](C)S(=O)(=O)CC2)s1 — lower, 0%
- O=C(Nc1ccccc1)OCc1ccc(-c2ccc(Cl)cc2)o1 — lower, 4%
- CC[C@@H](CO)NCc1cccc(OC)c1OCC(=O)NC(C)(C)C — lower, -8%
- OCCNCc1c(Cl)cccc1Cl — lower, -1%
- C[C@H](NC(=O)C1CC1c1ccccc1)[C@H](O)c1ccc2c(c1)OCO2 (some centres not stated) — lower, 5%
- N#Cc1c(-c2ccco2)ccn(Cc2ccc(F)cc2)c1=O — lower, -5%
- C[C@H]1CN(c2ccc(N(C)C)cc2)C(=O)NC1=O — lower, 3%
- Cc1ccc(NC(=O)COC(=O)c2nccc3ccccc23)cc1 — lower, -3%
- CC[N+](CC)(CC(=O)OC1CC2CCC1(C)C2(C)C)CC(=O)OC1CC2CCC1(C)C2(C)C (configuration not stated) — lower, 83%
- Cc1ccc(NC(=O)Cn2cnc3nc(N(C)Cc4ccccc4)sc3c2=O)c(Br)c1 — lower, -14%
- C[n+]1ccccc1/C=C/c1c[nH]c2ccccc12 — higher, 90%
- CC(NC(C)C1CN(C(=O)OC(C)(C)C)C1)c1ccccc1Br (configuration not stated) — lower, 0%
- CCc1c(C)nn2c(c1C)c(-c1ccccc1)[n+]1c(C)c(CC)c(C)nc21 — lower, 49%
- CN(C)Cc1ccc(NC(=O)c2cc(F)cc3c(=O)c4cc(F)ccc4[nH]c23)cc1 — lower, 79%
- N#Cc1ccc(NCCc2ccc(O)cc2)cn1 — lower, -9%
- COc1ccc(OC)c(NC(=O)c2c(C)noc2-c2ccc(Cl)cc2)c1 — lower, 9%
- Cc1ncsc1-c1nc(CNc2ccc(C(F)(F)F)cc2Cl)no1 — lower, -19%
- CCCC[C@H](CC)C(=O)NC1CCCCC1 — lower, 2%
- O=C(CCC1CCCC1)N1CCC(N2CCCCCC2)CC1 — lower, 6%
- COCc1nn2c3c(nnc2c1-c1ccccc1)C(=O)CC(C)(C)C3 — lower, 2%
- CC1(C)C[C@@H](NC(=O)c2cc3[nH]cnc3cc2F)CCO1 — lower, 7%
- O=C1CN(C(=O)c2ccc(-c3ccccc3F)o2)c2ccccc2N1 — lower, -9%
- CCc1ncsc1C(=O)N(C)[C@@H]1CCC[C@H]1O — lower, -12%
- CC(C)c1ccc(S(=O)(=O)Nc2ccc3nc(NC(=O)c4ccccc4)sc3c2)cc1 — lower, 0%
- CC(C)(C)OC(=O)N1CCC(Cn2nccc2N)CC1 — lower, -6%
- S=c1oc2ccccc2n1CNC1CCCCC1 — lower, 1%
- CCC(=O)OC1(C#CCOc2ccc(OC)cc2)CCN(C)CC1 — lower, 1%
- CCOc1cc(C(=O)N[C@H]2CCS(=O)(=O)C2)cc2occc12 — lower, -6%
- Cc1cc(O)nc(CN2CC(C)CC(C)C2)n1 (configuration not stated) — lower, -8%
- CCOc1c(CNC[C@H](C)O)cc(Br)cc1OC — lower, -1%
- O=S(=O)(c1ccc(Br)o1)N1CCCC[C@H]1c1ncc[nH]1 — lower, -6%
- O=C1CCN(C(=O)C2(c3cccc(Cl)c3)CCCC2)CCN1 — lower, 2%
- Oc1ccc(-c2nnc(-c3ccc(O)cc3)nn2)cc1 — lower, 51%
- C[C@@H]1C[C@@H](Nc2ccccc2)c2ccccc2N1C(=O)COc1ccc(Br)cc1 — lower, -7%
- CC(C)(C)c1cc(CN2CCN(S(N)(=O)=O)CC2)n[nH]1 — lower, 9%
- C[C@H]1CCCCN1S(=O)(=O)c1ccc(-c2ccc(Cl)cc2)cc1 — lower, 1%
- CCc1ccc(C(NC(=O)N2CC3C4CCC(O4)C3C2)C(C)(C)C)o1 (configuration not stated) — lower, -14%
- CCOc1ccc(Cn2cncn2)nc1 — lower, -4%
- O=S(=O)(C1CC1)N1CC[C@H](CO)C1 — lower, -6%
- CC(C)(NC(=O)CC1(O)CCCCC1)C(=O)Nc1ccccc1 — lower, -1%
- Cc1c(N2CCC(C(=O)NC[C@H]3CCCO3)CC2)c(=O)n(CC(C)C)c(=O)n1-c1ccccc1 — lower, -7%

— ChEMBL document CHEMBL4888484, “Replenishing the malaria drug discovery pipeline: Screening and hit evaluation of the MMV Hit Generation Library 1 (HGL1) against asexual blood stage Plasmodium falciparum ,using a nano luciferase reporter read-out” (2022)
